# The full ranking holds about 33,000 sequences; the median of “E-score (-0.5 to 0.5)” is about -0.01, and the highest 2% start at about 0.26. This is one part of the list.
# Molecular target: Ste12 (UniProt P13574)
# Test: PBM E-score (8-mer binding enrichment) (E-score (-0.5 to 0.5)); higher = stronger / more preferred TF binding; most listed sequences are background and not binding sites
# Conditions: protein concentration: 200 nM; construct: GST-DNA-binding domain
# In short: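 Universal all-10-mer Agilent arrays, fresh or stripped once, were converted to double-stranded form by primer extension. GST-tagged yeast transcription factors from PURExpress in vitro transcription/translation, full-length or DNA-binding domain only, were applied at about 100-200 nM and detected with fluorescent anti-GST. After masliner normalisation, the Universal PBM Analysis Suite scored each ungapped eight-base word together with its reverse complement by E-score.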
row,Sequence,PBM E-score
1,CACCGTAA,0.00184
2,ATATAGAC,-0.074
3,ACGCAACG,-0.0814
4,CCCCAGAC,-0.122
5,CTAACGCA,-0.0702
6,GAGTCCAC,-0.214
7,ATTGCGGA,0.105
8,CCGCAAGG,-0.0677
9,AGATTATA,0.191
10,ATTCTCCG,0.0592
11,AAACACGA,0.129
12,CACACGAG,-0.116
13,ATTTTGTA,0.16
14,TCAGCGAA,-0.0329
15,CAGCTTCA,-0.0224
16,ACTCGAAT,-0.144
17,CGTAGCGA,0.00985
18,CACGATTA,-0.0445
19,ATCCTTCG,-0.0587
20,GGTGGGTA,0.0601
21,CGCGACCA,0.151
22,GATGGCAC,-0.0893
23,AGTCTGAC,-0.174
24,AAAACTGA,-0.0102
25,CACAAAAG,0.0603

row,Sequence,PBM E-score
1,CAGGGCTC,-0.234
2,GTGAGGTA,0.0806
3,CAGCCACC,-0.0103
4,AGTAATAT,0.117
5,CTCAGACC,0.0442
6,CGAGAAAA,0.128
7,CTAATCGC,0.0206
8,TTATCAAA,0.274
9,GCGCTACC,-0.107
10,AAGAAGCA,0.0796
11,ATTTAATA,0.267
12,AAATGGAA,0.0869
13,TATGAACA,0.17
14,GCGAGGCA,0.0343
15,AAGACGCT,-0.14
16,CTATGGCA,-0.0307
17,TCATGCCA,0.00418
18,ACTAGCCG,-0.2
19,CCTCTGCA,-0.207
20,CAGCCCTC,-0.217
21,AGGCGGTG,-0.143
22,ACACGGCC,-0.0545
23,CCAACCAA,0.0513
24,TCGTAAAA,0.279
25,CGCTGAGC,-0.154

row,Sequence,PBM E-score
1,CCTACGAC,-0.109
2,GACCGAAA,0.0377
3,AGTTGGGC,-0.00996
4,GGTTTTTA,0.166
5,AAGTCTCG,-0.0618
6,CAAAAGTA,0.0684
7,ACTAACTA,0.00065
8,CCGGAGGA,-0.0129
9,ATGGGCTA,0.0469
10,CCGCGGGA,0.237
11,ACCGTAAG,-0.00259
12,TCTTTTAA,0.142
13,ATGGCACA,0.0636
14,CCGTTGAG,-0.291
15,CTCTCCAA,-0.12
16,GCCGTTGA,-0.078
17,GCTTATGA,-0.0985
18,GTTGTACA,0.016
19,GGCCATGA,-0.128
20,CGACGTCC,-0.00575
21,AGACATCA,-0.00189
22,CAGGGTTA,-0.0364
23,ACTGTCAC,0.0531
24,AGGTGTTA,-0.0663
25,AACATTGG,0.0507

row,Sequence,PBM E-score
1,ACAATAAA,0.142
2,CCCGTTAA,-0.0753
3,GCTCGAGA,-0.248
4,ACGACGCT,0.0306
5,ATAGCTAC,-0.186
6,TCTGAAGA,-0.149
7,AAACAACA,0.287
8,CGATTATC,-0.0182
9,ACGCCACC,-0.0716
10,ATAATTTG,0.212
11,CCACATCG,0.0133
12,CGGGGATA,0.152
13,AAGTTGTA,0.194
14,TCTCTGCA,-0.0711
15,GTAGTGAC,-0.121
16,CGCATCCA,-0.0639
17,AGGCATTA,-0.076
18,CATCGACG,-0.0613
19,GGCTGTAA,0.0732
20,AAGGGTCG,-0.177
21,GAGAACGA,0.0582
22,CGGGGTCC,-0.168
23,AGATCTCA,0.0566
24,GCTCGATA,0.0716
25,CAAAGGGC,0.0737

row,Sequence,PBM E-score
1,ATGGGACG,-0.0447
2,CATGCTCG,-0.0627
3,AAGGCTTA,-0.127
4,AAATGGCA,-0.0228
5,GTAGTATA,0.162
6,ACGCTTGA,-0.00784
7,AGGCGCCG,0.14
8,AGTGTTAC,0.181
9,ACCGCATG,0.0572
10,AAGGCCGT,0.00388
11,ATTACCTG,-0.0682
12,CCGCAGCA,-0.0396
13,CTTTTAAA,0.255
14,ATCGGAGC,-0.176
15,ATAAGGGA,0.0929
16,CGAAGGAA,-0.0679
17,AACGTAAT,0.109
18,AGGCTCGC,-0.202
19,TCCGTTCA,-0.13
20,AGAGTACG,-0.128
21,ATTCTAAA,0.215
22,CCAGCCGC,-0.0238
23,AGATTAAA,0.19
24,CCATTGAC,0.0101
25,ATGTTAAT,0.126

row,Sequence,PBM E-score
1,GAGGGACA,-0.0534
2,GCACTGAC,-0.157
3,CCCAGACA,-0.159
4,CCACGAGA,-0.135
5,AGTCCTCC,-0.108
6,GAGGACCA,-0.255
7,TATTTGGA,0.0333
8,GGCTATGA,-0.0398
9,CATAGGAA,-0.111
10,AGAACCCA,-0.133
11,ACACCAGT,-0.153
12,ACACAAAC,0.165
13,GCCCTGGA,-0.235
14,CCCGATGC,-0.113
15,ACTATCCA,-0.144
16,AAATGGGG,0.0467
17,ATAGGACA,-0.267
18,CCACGTTA,0.164
19,ATCAATAG,0.0293
20,CTCCCTCA,-0.192
21,AACCCTTC,0.024
22,AATTCGTC,-0.0924
23,CTAGAGTA,-0.0552
24,AATCTAAT,-0.056
25,CGGCGGAA,0.218

row,Sequence,PBM E-score
1,GTGTGTTA,0.201
2,ATCCGTGC,-0.0257
3,ATGGACCA,-0.0646
4,CGCGCAAC,0.0486
5,ATGTTCCC,-0.0246
6,AACTGCAA,0.0421
7,TCAGTACA,-0.0074
8,GCCGTGCC,-0.102
9,AATACCGT,0.166
10,CTCTGACA,0.19
11,CTACGAAA,0.069
12,CATAAAGA,0.0828
13,AGCACCAC,-0.174
14,CCGCGGAA,0.139
15,CCCGGACC,0.00052
16,CACCGTGC,0.131
17,ATAGGCGC,0.083
18,CTTGAAGC,-0.00695
19,GAACTCAC,0.0195
20,CGACAATC,-0.142
21,AGGAAAGC,-0.0002
22,ACTAAAGT,-0.047

# Reference: the supplement of paper PMC3334620
